{"source": "PubChem BioAssay AID2675", "about": "(National Center for Advancing Translational Sciences (NCATS), 2010)", "note": "Screen size: about 280,000 compounds; about 100 (0.036%) were called active. Inconclusive means that the source gave no clear call. Such entries were picked first, then a sample of the others. Calls come from the whole dose curve; as a rule, active = well fitted inhibition curve with a large enough effect in the signal ratio, with a control signal flat (not every such curve was filed as active); inconclusive = small, poorly fitted or top-dose-only effect, or effect the other way, or a change in a side signal; inactive = no such curve, though single readings can be large or run the other way; the % refers to the signal ratio. Potencies beside an inconclusive call are fits to weak or partial responses and may not hold up. “Side channel” marks fits to a control or component signal instead of the main read-out. Potency is the fitted concentration of half-maximal effect; tags give direction and shape of the fitted curve or compound fluorescence and quenching.", "data": [{"biological_target": "Muscleblind-like protein 1 (Homo sapiens) (UniProt Q9NR56)", "sequence (Q9NR56 whole entry, looked up)": "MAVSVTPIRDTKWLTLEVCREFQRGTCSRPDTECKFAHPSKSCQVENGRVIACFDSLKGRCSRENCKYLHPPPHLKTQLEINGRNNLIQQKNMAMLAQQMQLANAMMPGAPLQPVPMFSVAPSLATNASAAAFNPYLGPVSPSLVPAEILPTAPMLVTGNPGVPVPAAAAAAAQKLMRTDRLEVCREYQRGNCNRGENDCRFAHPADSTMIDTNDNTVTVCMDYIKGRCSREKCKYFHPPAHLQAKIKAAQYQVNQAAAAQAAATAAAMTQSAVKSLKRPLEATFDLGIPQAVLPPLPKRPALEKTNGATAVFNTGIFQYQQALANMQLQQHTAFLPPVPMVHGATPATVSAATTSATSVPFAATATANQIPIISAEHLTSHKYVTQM", "assay": "qHTS Assay for Inhibitors of MBNL1-poly(CUG) RNA binding", "conditions": "TR-FRET MBNL1-His/biotin-(CUG)12 binding, 665/545 ratio; series mostly up to 57.5 µM", "outline": "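Compounds (final 92 nM to 58 uM) are added to His-tagged MBNL1 and biotin-(CUG)12, then terbium anti-His antibody and streptavidin-XL665 (5 nM final). After 60 min at room temperature, the 665/545 nm ratio is read.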", "values": [{"compound": "O=C1Nc2ccccc2/C1=N\\c1sc2c(c1C(=O)Nc1ccccc1)CCCC2", "Potency": "inconclusive: 31.6 µM [quencher, side channel, single point]"}, {"compound": "CC(=O)Nc1ccc2nc(NC(=O)c3ccc([N+](=O)[O-])o3)sc2c1", "Potency": "inconclusive: 2.51 µM [quencher, side channel, full curve]"}, {"compound": "O=C(CN1C(=O)C2C3C=CC(C3)C2C1=O)Nc1ccc2nccnc2c1", "note": "(centres undefined)", "Potency": "inconclusive: 28.2 µM [quencher, side channel, partial curve]"}, {"compound": "O=C(c1cc2c(s1)-c1ccccc1S(=O)(=O)C2)N1CCN(Cc2ccccc2)CC1", "Potency": "inconclusive: 17.8 µM [quencher, side channel, partial curve]"}, {"compound": "Cc1ccc([N+](=O)[O-])cc1NC(=O)Cc1cccs1", "Potency": "inconclusive: 15.8 µM [quencher, side channel, partial curve]"}, {"compound": "COc1cc(C(=O)N/C(=C\\c2cn(C)c3ccccc23)C(=O)NCCCO)cc(OC)c1OC", "Potency": "inconclusive: 25.1 µM [quencher, side channel, partial curve]"}, {"compound": "COc1cccc(C2=N/C(=C\\N(C)C)C(=O)O2)c1", "Potency": "inconclusive: 15.8 µM [quencher, side channel, partial curve]"}, {"compound": "O=[N+]([O-])c1ccc(S(=O)(=O)Nc2ncccn2)cc1", "Potency": "inconclusive: 3.98 µM [quencher, side channel, partial curve]"}, {"compound": "CC(C)C(=O)Nc1ccccc1N1CCN(S(C)(=O)=O)CC1", "Potency": "inconclusive: 8.91 µM [fluorescent, side channel, partial curve]"}, {"compound": "CN(C)C(=O)c1coc2nc3ccccc3nc12", "Potency": "inconclusive: 39.8 µM [quencher, side channel, single point]"}, {"compound": "Cc1nc(-c2ccc([N+](=O)[O-])cc2)sc1C(=O)O", "Potency": "inconclusive: 11.2 µM [quencher, side channel, partial curve]"}, {"compound": "O=C(NC(=S)Nc1ccc(NC(=O)c2ccco2)cc1)c1ccccc1", "Potency": "inactive"}, {"compound": "CN(C)S(=O)(=O)c1cc(NC(=O)COC(=O)Cc2ccc(Cl)cc2Cl)ccc1Cl", "Potency": "inconclusive: 39.8 µM [quencher, side channel, single point]"}, {"compound": "CC1CN(C(=S)Nc2cccc(Cl)c2Cl)CC(C)O1", "note": "(centres undefined)", "Potency": "inactive"}, {"compound": "Cc1ccc(Cl)cc1NS(=O)(=O)c1ccc2oc(=O)ccc2c1", "Potency": "inactive"}, {"compound": "CC(=O)Nc1nc(=S)n(-c2ccccc2)[nH]1", "Potency": "inactive"}, {"compound": "CC(=O)N(C)c1ccc(N=NC2C(=O)N(C(N)=S)N=C2C)cc1", "note": "(centres undefined)", "Potency": "inconclusive: 12.6 µM [quencher, partial curve]"}, {"compound": "C/C(=N/NC(=O)c1ccoc1C)c1ccc(N2CCOCC2)cc1", "Potency": "inconclusive: 200 µM [inhibitor, partial curve]"}, {"compound": "Cc1nn(Cc2c(F)c(F)c(F)c(F)c2F)c(C)c1NC(=O)c1ccc(COc2ccc(Cl)cc2Cl)o1", "Potency": "inconclusive: 25.1 µM [inhibitor, single point]"}, {"compound": "CN1CCN(CCNC(=O)Nc2ccccc2[N+](=O)[O-])CC1", "Potency": "inconclusive: 14.1 µM [quencher, side channel, partial curve]"}, {"compound": "COCCn1c(-c2ccco2)nc2nc3ccccc3nc21", "Potency": "inconclusive: 14.1 µM [quencher, side channel, partial curve]"}, {"compound": "COc1ccccc1NC(=O)COC(=O)c1ccccc1C(=O)N1CCN(c2ccccc2)CC1", "Potency": "inactive"}, {"compound": "CCC(C)(C)n1nnnc1C(c1cc(OC)ccc1OC)N1CCN(Cc2ccccc2)CC1", "note": "(centres undefined)", "Potency": "inconclusive: 22.4 µM [fluorescent, side channel, single point]"}, {"compound": "CCOC(=O)N1CCC(N2Cc3cccc(C(=O)Nc4ccc(F)cc4)c3C2=O)CC1", "Potency": "inactive"}, {"compound": "c1cc(-c2nnc3sc(C4CCCCC4)nn23)ccn1", "Potency": "inactive"}, {"compound": "Cc1cc(C)nc(NC(=O)c2cnc3sccn3c2=O)n1", "Potency": "inconclusive: 0.126 µM [fluorescent, side channel, full curve, poor fit]"}, {"compound": "Cc1nnc2ccc(-c3cccc(NC(=O)c4ccco4)c3)nn12", "Potency": "inconclusive: 39.8 µM [quencher, partial curve, poor fit]"}, {"compound": "C(=N\\Nc1nncc2ccccc12)/c1ccccn1", "Potency": "inconclusive: 25.1 µM [quencher, side channel, partial curve]"}, {"compound": "COc1cccc(/C=C2\\SC(=O)N(CC(=O)NCCCn3ccnc3)C2=O)c1", "Potency": "inconclusive: 15.8 µM [quencher, side channel, partial curve]"}, {"compound": "S=C(NCc1ccccc1)N/N=C/c1cccs1", "Potency": "inactive"}, {"compound": "CCCCCCCCc1nc(=S)[nH][nH]1", "Potency": "inactive"}, {"compound": "O=C(COC(=O)c1ccccc1)NCC1CCCO1", "note": "(centres undefined)", "Potency": "inactive"}, {"compound": "CCN(CC)Cc1c(O)c(Cl)cc2c3c(c(=O)oc12)CCCC3", "Potency": "inconclusive: 22.4 µM [quencher, side channel, single point]"}, {"compound": "Oc1ccc(CN2CCCCC2)nc1-c1ccccc1", "Potency": "inactive"}, {"compound": "c1ccc(CN2CCN(C(c3ccccc3)c3ccccc3)CC2)cc1", "Potency": "inactive"}, {"compound": "CC1CCN(S(=O)(=O)c2cccc(S(=O)(=O)N3CCOCC3)c2)CC1", "Potency": "inactive"}, {"compound": "CCCCN(Cc1ccco1)S(=O)(=O)c1ccc(-c2ccc(=O)[nH]n2)s1", "Potency": "inconclusive: 22.4 µM [quencher, side channel, partial curve]"}, {"compound": "CCCc1c(C(=O)OCC)sc(N)c1C#N", "Potency": "inconclusive: 39.8 µM [fluorescent, side channel, single point]"}, {"compound": "COc1ccc(C2CC(c3cccc(C)c3)n3ncnc3N2)cc1", "note": "(centres undefined)", "Potency": "inconclusive: 1.12 µM [quencher, side channel, full curve]"}, {"compound": "CN(C)CCCNC(=O)c1ccc(/C=N/O)nc1", "Potency": "inconclusive: 25.1 µM [quencher, side channel, partial curve]"}, {"compound": "Cc1cc2n(n1)C(c1c[nH]c3ccccc13)Nc1ccccc1-2", "note": "(centres undefined)", "Potency": "inactive"}, {"compound": "CN1CCN(c2ccc([N+](=O)[O-])cc2C(=O)Nc2ccccc2)CC1", "Potency": "inconclusive: 25.1 µM [quencher, side channel, partial curve]"}, {"compound": "COCCNC(=O)/C(C#N)=C1\\N=C(NC(=O)c2cccs2)c2ccccc21", "Potency": "inconclusive: 7.94 µM [quencher, partial curve]"}, {"compound": "CCn1nc(C)cc1-c1nnc(Sc2ncc([N+](=O)[O-])s2)n1C", "Potency": "inconclusive: 8.91 µM [quencher, side channel, partial curve]"}, {"compound": "O=C1c2oc3ccccc3c(=O)c2C(c2cccnc2)N1CCCN1CCOCC1", "note": "(centres undefined)", "Potency": "inconclusive: 6.31 µM [fluorescent, side channel, single point]"}, {"compound": "CCOC(=O)c1c(NC(=O)c2ccn(CC)n2)sc2c1CCCC2", "Potency": "inactive"}, {"compound": "CN1C(C(=O)NCc2ccco2)=CC(c2ccc(F)cc2)=NS1(=O)=O", "Potency": "inconclusive: 15.8 µM [quencher, side channel, partial curve]"}, {"compound": "O=C(Cn1cc2c(n1)CCCCC2)Nc1ccc(F)cc1F", "Potency": "inconclusive: 0.126 µM [quencher, side channel, full curve, poor fit]"}, {"compound": "CCOC(=O)C1=C(C)NC(=O)C(C(N)=O)C12CCCCC2", "note": "(centres undefined)", "Potency": "inconclusive: 39.8 µM [fluorescent, side channel, single point]"}, {"compound": "COC(=O)c1ccc(NC(=S)NC2CC3CCC2C3)cc1", "note": "(centres undefined)", "Potency": "inactive"}, {"compound": "Oc1c(/C=N/Nc2cccc3cccnc23)ccc2ccccc12", "Potency": "inconclusive: 0.708 µM [quencher, side channel, single point]"}, {"compound": "COC(=O)c1sc(NC(=S)NC(=O)c2ccc(F)cc2)nc1C", "Potency": "inactive"}, {"compound": "COc1ccc2[nH]cc(CCNC(=O)c3ccc([N+](=O)[O-])cc3)c2c1", "Potency": "inconclusive: 12.6 µM [quencher, partial curve]"}, {"compound": "CC[n+]1ccccc1/C=C/c1ccc(N(C)C)cc1", "Potency": "inconclusive: 12.6 µM [quencher, side channel, partial curve]"}, {"compound": "CCOc1ccc(S(=O)(=O)NC(C)C)cc1C(N)=O", "Potency": "inactive"}, {"compound": "CC1CN(C(=O)c2cc3c(=O)n4ccccc4nc3s2)CC(C)O1", "note": "(centres undefined)", "Potency": "inconclusive: 14.1 µM [quencher, side channel, partial curve]"}, {"compound": "CC(/C=C/C=C/c1ccccc1)=N/NC(=O)C(O)c1ccccc1", "note": "(centres undefined)", "Potency": "inconclusive: 15.8 µM [quencher, side channel, partial curve]"}, {"compound": "CCOc1ccc2[nH]c(SCC(=O)OC)c([N+](=O)[O-])c2c1", "Potency": "inconclusive: 5.01 µM [quencher, side channel, partial curve]"}, {"compound": "CC(C)C(=O)N1CCN(c2cc(N3CCN(C)CC3)c(F)cc2[N+](=O)[O-])CC1", "Potency": "inconclusive: 14.1 µM [quencher, partial curve]"}, {"compound": "CCCn1c(=O)c2ccccc2n2c(=S)[nH]nc12", "Potency": "inactive"}, {"compound": "COc1ccc(OC)c(/C=N/NC(=O)CNC(=O)c2cccc3ccccc23)c1", "Potency": "inconclusive: 14.1 µM [quencher, side channel, partial curve]"}, {"compound": "COc1ccc2nc3ccccc3nc2c1N", "Potency": "inconclusive: 12.6 µM [quencher, side channel, partial curve]"}, {"compound": "Cn1c(CN2CCN(C(=O)c3ccc(F)cc3)CC2)nc2cc([N+](=O)[O-])ccc21", "Potency": "inconclusive: 8.91 µM [quencher, side channel, single point]"}, {"compound": "COc1ccccc1N=Nc1nc(-c2ccccc2)c(-c2ccccc2)[nH]1", "Potency": "inconclusive: 25.1 µM [quencher, side channel, partial curve, poor fit]"}]}]}
